Test results from PubChem BioAssay AID1458 (National Center for Advancing Translational Sciences (NCATS), 2008).
Among all 210,000 compounds or so, about 5,900 (2.8%) were called active. The inconclusive results got no clear call from the source; some entries with a clear call stand among them for comparison. The call rests on the fitted dose curve; in most records, active means well fitted activation curve with a large enough effect; inconclusive means small, poorly fitted or top-dose-only effect; inactive means no such curve, though single readings can be large or run the other way. Where the call is inconclusive, the potency comes from a doubtful curve fit.
Potency means the concentration at half of the fitted maximal effect; tags describe the fitted curve by direction and shape.

Experiment: qHTS Assay for Enhancers of SMN2 Splice Variant Expression; further: nearly all actives have a fitted effect of over 55% in size; on activity change, positive = activation: % of control where 0% means no effect
Settings: HEK293 SMN2-luciferase splicing reporter, luminescence, 30-36 h; activity change, positive = activation: at 46.1 µM (top of the series)
Summary of the method: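 qHTS luciferase splicing reporter: luminescence rises when SMN2 exon 7 is included in transfected HEK293 cells. Compound exposure lasted 30-36 h at 37C, with 4.5 mM final sodium butyrate as control, followed by a ONE-Glo read.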
With CS(=O)(=O)N(CC(=O)NCC1CCCO1)Cc1ccc(Cl)cc1 (stereo not given) the Potency was inconclusive: 0.0224 µM [activator, full curve, poor fit].
With CCCCCn1c(=O)c(-c2nc3ccccc3[nH]2)c(O)c2ccccc21 the “activity change, positive = activation” value was inactive: -18.8%.
In the case of Cc1cccc(N=Nc2cn[nH]c2-c2ccco2)c1, the Potency is reported as inconclusive: 25.1 µM [activator, single point].
In the case of O=C(c1ccco1)N1CCN(C(=O)c2ccc(COc3ccc4c(c3)CCC4)o2)CC1, the “activity change, positive = activation” value is reported as inactive: 14.1%.
In the case of Cc1cc(Cl)ccc1OCCCC(=O)OCC(N)=O, the “activity change, positive = activation” value is reported as inactive: 17.3%.
In the case of Clc1ccc(/C=N/Nc2ncnc3ccccc23)cc1Cl, the Potency is reported as inconclusive: 22.4 µM [activator, single point].
In the case of COc1ccccc1C(=O)Nc1ccc(N2CCN(S(C)(=O)=O)CC2)cc1, the Potency is reported as inconclusive: 35.5 µM [activator, single point].
With CCN(CC)S(=O)(=O)c1cc(NC(=O)COc2ccc(C#N)cc2OC)ccc1C the “activity change, positive = activation” value was inactive: -4.35%.
With COCCOC(=O)C1=C(C)NC2=C(C(=O)CCC2)C1c1ccc(N(C)C)cc1 (stereo not given) the Potency was inconclusive: 35.5 µM [activator, single point].
In the case of COc1ccc(OC)c(S(=O)(=O)N2Cc3ccccc3CC2C(=O)Nc2nccs2)c1 (stereo not given), the Potency is reported as active: 35.5 µM.
In the case of COc1ccc(NC(=O)CCNC(C)=O)cc1NS(=O)(=O)c1ccc(F)cc1, the Potency is reported as inconclusive: 15.8 µM [activator, single point].
For Brc1ccc(C=Nc2ccc(Nc3ccccc3)cc2)s1, the “activity change, positive = activation” value was inactive: 16.9%.
In the case of CCNc1nc(NCC)nc(SCCOc2ccc(C)cc2)n1, the Potency is reported as inconclusive: 35.5 µM [activator, single point].
With O=C(CCNc1n[nH]c(=O)[nH]c1=O)N/N=C/c1ccc(C(F)(F)F)cc1 the “activity change, positive = activation” value was inactive: -1.27%.
In the case of CC(=O)NC(=S)Nc1cccc2c(C)cc(C)nc12, the Potency is reported as inconclusive: 1.12 µM [activator, partial curve].
For COc1ccccc1C/C(N)=N/O, the Potency was inconclusive: 1.58 µM [activator, partial curve, poor fit].
In the case of Clc1ccc(OCc2nc3ccccc3[nH]2)cc1, the Potency is reported as active: 11.2 µM.
In the case of Cc1cc(F)ccc1-n1nnc(C(N)=O)c1C, the “activity change, positive = activation” value is reported as inactive: 3.4%.
In the case of Cc1ccccc1Nc1c(-c2cccc(N(C)C)c2)nc2ccc(Br)cn12, the Potency is reported as inconclusive: 0.891 µM [activator, partial curve].
For O=C(NCc1n[nH]c(=S)n1-c1cccc(Cl)c1)c1ccc(S(=O)(=O)N2CCCC2)cc1, the Potency was inconclusive: 0.0794 µM [activator, full curve, poor fit].
With O=C(NC(=S)Nc1ccccc1F)c1ccc(Br)o1 the Potency was inconclusive: 31.6 µM [activator, single point].
For Cc1ccc(Nc2ncnc3c2oc2ccccc23)cc1, the Potency was active: 12.6 µM.
For Cn1c(=N)n(CC(O)c2ccccc2)c2ccccc21 (stereo not given), the Potency was inconclusive: 5.62 µM [activator, partial curve].
With CCN(CC)S(=O)(=O)c1ccc(C(=O)OCC(=O)Nc2ccc(-c3nc4ccc(C)cc4s3)cc2)cc1 the Potency was active: 1 µM.
For C/C(=C1\SC(N2CCOCC2)=NC1=O)c1ccc(C)cc1, the Potency was inconclusive: 0.398 µM [activator, full curve, poor fit].
For CN(C)c1ccc(N=Cc2nc(-c3ccccc3)oc2OC(=O)c2ccccc2)cc1, the Potency was active: 11.2 µM.
In the case of CN(NS(=O)(=O)c1ccc(Cl)cc1)c1nc(C(F)(F)F)nc2ccccc12, the “activity change, positive = activation” value is reported as inactive: -46.1%.
In the case of CCc1c(C)sc(NC(=O)c2cccs2)c1C#N, the Potency is reported as active: 11.2 µM.
For CN(C)c1ccc(C(c2ccc(N(C)C)cc2)c2ccc([N+](=O)[O-])cc2)cc1, the activity change, positive = activation was inactive: -18.3% [at 9.22 µM].
In the case of COc1ccc(NC(=O)c2ccc3c(c2)OCO3)cc1[N+](=O)[O-], the Potency is reported as inconclusive: 4.47 µM [activator, partial curve].
In the case of COc1cc(C(=O)Nc2ccc3c(c2)OCCO3)ccc1OC(C)C, the Potency is reported as active: 11.2 µM.
In the case of O=C(CNC(=O)C1CCCCC1)Nc1ccc(F)c(Cl)c1, the Potency is reported as active: 17.8 µM.
In the case of O=C(CC(Nc1ccc(F)cc1)C(=O)OCC(=O)c1cccs1)c1ccccc1 (stereo not given), the Potency is reported as inconclusive: 0.631 µM [activator, single point].
With C#CCOC(=O)C(NC(=O)c1ccccc1)=C1CCCCC1 the “activity change, positive = activation” value was inactive: -0.846%.
With Cc1ccc(Nc2nc3ccc(C)cc3nc2-n2nc(C)cc2C)c(C)c1 the “activity change, positive = activation” value was inactive: 13%.
In the case of Cc1ccc(C(=O)N/C(=C\c2cn(-c3ccccc3)nc2-c2ccccc2)C(=O)N2CCOCC2)cc1, the “activity change, positive = activation” value is reported as inactive: -7.25%.
In the case of CCN(CC)C(=O)Cn1nc(-c2ccccc2O)nc1SCC(=O)Nc1ccc(OC)cc1, the Potency is reported as inconclusive: 35.5 µM [activator, partial curve].
In the case of CCOC(=O)CC(=O)CSc1nc2c(cc1C#N)CCCCC2, the Potency is reported as inconclusive: 12.6 µM [activator, single point].
With Nc1cc(N)nc(SCCN2CCCCC2)n1 the “activity change, positive = activation” value was inactive: -22.5%.
For O=C(Nc1ccc(Nc2ccccc2)cc1)N1CCOCC1, the Potency was inconclusive: 0.0071 µM [activator, full curve, poor fit].
In the case of O=C(Nc1nc2ccc(Cl)cc2s1)c1ccco1, the Potency is reported as active: 3.16 µM.
In the case of O=c1c2ccccc2nnn1COc1ccc(Cl)cc1Br, the Potency is reported as inconclusive: 17.8 µM [activator, partial curve].
In the case of Cc1ccc(NC(=O)CNC(=O)c2ccccc2F)cc1Cl, the activity change, positive = activation is reported as inconclusive: 36.8% [activator].
In the case of CNC(=O)Nc1cc(C)nn1C, the Potency is reported as inconclusive: 12.6 µM [activator, single point].
In the case of COc1ccc(C(=O)NC(=O)Nc2ncccc2C)cc1, the Potency is reported as inconclusive: 12.6 µM [activator, single point].
In the case of CCC1=Nc2ccccc2-c2nnc(SC)nc2O1, the Potency is reported as active: 2 µM.
For CNC(=O)c1sc(-c2ccc(Cl)cc2)nc1C, the Potency was inconclusive: 11.2 µM [activator, single point].
In the case of O=C(NC(=S)Nc1ccc2c(c1)OCCO2)c1ccccc1F, the Potency is reported as inconclusive: 31.6 µM [activator, single point].
In the case of O=C(Nc1cccc(O)c1)c1ccc(Br)cc1, the “activity change, positive = activation” value is reported as inactive: 3.62%.
For CCOc1ccc(NC(=S)Nc2ccc3nsnc3c2)cc1, the Potency was inconclusive: 6.31 µM [activator, partial curve, poor fit].
